This is an account of results in publication PMC4336329 (PLoS ONE, 2015).

The whole screen tested about 310,000 compounds, of which about 14,000 (4.5%) showed an effect of 50% or more. Effects have a minus sign here. The list shows a part of the results.
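Further: peak tail current of the secondary pulse compared with the same well before compound.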

This experiment deals with human ether-à-go-go-related gene (hERG) potassium channel (human, UniProt Q12809). As to the kind of experiment: primary screen, population patch clamp on CHO cells stably expressing hERG.
Sequence of human ether-à-go-go-related gene (hERG) potassium channel (Q12809 whole entry, looked up): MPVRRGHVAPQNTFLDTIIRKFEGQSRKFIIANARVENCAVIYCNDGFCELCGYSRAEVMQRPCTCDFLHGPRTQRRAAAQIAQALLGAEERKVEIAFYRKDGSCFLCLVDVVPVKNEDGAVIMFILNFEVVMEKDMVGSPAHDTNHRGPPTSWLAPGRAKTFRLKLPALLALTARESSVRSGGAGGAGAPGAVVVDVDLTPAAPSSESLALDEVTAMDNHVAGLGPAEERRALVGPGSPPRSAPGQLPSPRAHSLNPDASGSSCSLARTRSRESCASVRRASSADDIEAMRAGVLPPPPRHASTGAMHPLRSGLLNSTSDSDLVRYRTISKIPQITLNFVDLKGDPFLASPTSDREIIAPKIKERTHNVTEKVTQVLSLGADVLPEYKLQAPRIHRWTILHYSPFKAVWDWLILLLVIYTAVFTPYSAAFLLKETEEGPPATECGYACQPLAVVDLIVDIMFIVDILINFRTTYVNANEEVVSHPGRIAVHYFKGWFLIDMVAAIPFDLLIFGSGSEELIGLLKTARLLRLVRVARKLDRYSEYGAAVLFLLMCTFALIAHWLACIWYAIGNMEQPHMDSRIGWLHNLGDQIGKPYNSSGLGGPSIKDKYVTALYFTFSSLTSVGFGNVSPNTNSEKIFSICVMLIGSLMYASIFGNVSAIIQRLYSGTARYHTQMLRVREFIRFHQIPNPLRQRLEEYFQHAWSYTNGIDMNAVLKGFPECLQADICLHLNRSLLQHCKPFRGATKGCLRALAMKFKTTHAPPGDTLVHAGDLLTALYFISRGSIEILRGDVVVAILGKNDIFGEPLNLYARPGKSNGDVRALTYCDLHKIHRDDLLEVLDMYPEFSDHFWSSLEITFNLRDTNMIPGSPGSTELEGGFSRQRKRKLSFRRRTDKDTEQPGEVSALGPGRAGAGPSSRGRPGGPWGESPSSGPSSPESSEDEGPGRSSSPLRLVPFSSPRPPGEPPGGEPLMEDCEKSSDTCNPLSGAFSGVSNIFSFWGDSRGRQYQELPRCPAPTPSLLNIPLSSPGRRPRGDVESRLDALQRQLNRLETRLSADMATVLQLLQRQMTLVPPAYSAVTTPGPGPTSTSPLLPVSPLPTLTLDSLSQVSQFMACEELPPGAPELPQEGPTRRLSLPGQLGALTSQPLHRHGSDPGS
For the molecule `COC(=O)C1=C(c2ccc(Cl)c(C(F)(F)F)c2)C[C@@H]2CC[C@H]1N2C(=O)NCc1cc(C)oc1C(F)(F)F`, the “hERG current change (%, negative = inhibition) at 10uM” value is listed as 6.92%. The figure for `COc1ccc(CNC2=CC(=O)CC(C)(C)C2)cc1` is -17.9%. The figure for `Cc1c(C)n(CCc2ccccc2)c2ncnc(NCCO)c12` is -12.9%; for `COc1ccc(NC(=O)C2c3cc(OC)c(OC)cc3C(=O)N(C)C2c2cccnc2)cc1OC` (centres unmarked) it is -6.21%.

As to `Cc1ccc(CSc2nnc(-c3cccs3)n2C)cc1`, the “hERG current change (%, negative = inhibition) at 10uM” value is -31.9%. The result for `O=C(c1ccc(C#Cc2ccccc2)o1)N1CCN(c2ccccn2)CC1` reads -6.76%; that for `CC(=O)Nc1ccc(S(=O)(=O)N2CCC(C(=O)NCc3cccnc3)CC2)cc1`, 20.3%; that for `Cc1cc(C)c(S(=O)(=O)N2CCOC2CNC(=O)C(=O)NCCN(C)C)c(C)c1` (centres unmarked), 13.1%. The figure for `Cc1cc(=O)[nH]c2ccc(S(=O)(=O)Nc3ccccc3)cc12` is 10%. The result for `O=C(Cc1ccc(Cl)cc1)NCC(=O)N1CCN(Cc2ccccc2)CC1` reads -26.8%; that for `Cc1ccc(N/N=C/c2cccnc2)cc1.Cl`, -9.59%. Take `Cc1cc(OCc2cc(C(=O)N(C)CCCN3CCOCC3)no2)cc(C)c1Cl`: the “hERG current change (%, negative = inhibition) at 10uM” value is on record as -58%. As for `O=C1NC(Cc2c[nH]c3ccccc23)C(=O)N1Cc1ccc(CN2C(=O)NC(Cc3c[nH]c4ccccc34)C2=O)cc1` (centres unmarked), the “hERG current change (%, negative = inhibition) at 10uM” value amounted to 10.4%. Take `Cc1ncc([N+](=O)[O-])n1CC(C)O` (centres unmarked): the “hERG current change (%, negative = inhibition) at 10uM” value is given as -1.1%. The figure for `CC(=O)C1=C(C)NC(SCc2ccc(C#N)cc2)=C(C#N)C1c1ccco1` (centres unmarked) is -29.3%; for `C/C(=N/N=C(/N)SCc1ccccc1)C(C)(C)C.Cl` it is 27.3%; for `CCOC(=O)c1c(NC(=O)CSc2nnc(CNc3ccc(C)cc3C)o2)sc(C)c1C` it is 11.7%.

Consider `O=C(O)c1ccc(S(=O)(=O)c2ccccc2)cc1`, for which the “hERG current change (%, negative = inhibition) at 10uM” value came to 11.5%. As to `CC1CN(c2nnc(NC(=O)c3ccccc3)s2)CC(C)O1` (centres unmarked), the “hERG current change (%, negative = inhibition) at 10uM” value is recorded as 32.1%.

As for `Cn1cnnc1SCC(=O)c1ccc2c(c1)OCCO2`, the “hERG current change (%, negative = inhibition) at 10uM” value was -0.473%. The result for `CCNc1ccc(S(N)(=O)=O)cc1[N+](=O)[O-]` reads 2.57%; that for `Cc1nc(SCc2ccccc2)c([N+](=O)[O-])[nH]1`, 16.6%; that for `O=C(c1ccc(F)cc1)N1CCN2C(=O)c3ccccc3C12c1ccc(Cl)cc1` (centres unmarked), -46.6%. Regarding `CC(C)NC(=O)CSc1nncn1-c1ccccc1`, the “hERG current change (%, negative = inhibition) at 10uM” value is 10.5%.

For the molecule `CCCC1(CCC)NC(=O)N(CC(=O)c2cc(C)n(-c3ccc4c(c3)OCO4)c2C)C1=O`, the “hERG current change (%, negative = inhibition) at 10uM” value is listed as 5.65%. The result for `Cc1ccc(CNC(=O)C2CC3Cn4c(nc5ccccc54)C3N2C)o1` (centres unmarked) reads -0.36%; that for `COc1ccccc1C(=O)Nc1ccc2c(C)cc(=O)oc2c1`, 15.4%; that for `CC(COc1ccccc1)N1CCC(CO)(CCc2ccccc2)CC1` (centres unmarked), -80.3%. The figure for `Cc1ccccc1NC(=O)C1c2cccc[n+]2CC(=O)N1Cc1ccc2c(c1)OCO2.[I-]` (centres unmarked) is 12.1%. As to `O=C(Cc1ccccc1[N+](=O)[O-])Nc1nccs1`, the “hERG current change (%, negative = inhibition) at 10uM” value is -16.6%. The figure for `CC(C)NC(=S)N/N=C/c1cccnc1` is 8.57%; for `Nc1ccc(-c2nc3ccccc3o2)cc1` it is 18.1%. On to `Brc1cc(Br)c2ncnc(N3CCCCC3)c2c1`, for which the “hERG current change (%, negative = inhibition) at 10uM” value is reported as -11.8%. As to `COC(=O)c1sccc1NC(=O)COc1ccccc1Cl`, the “hERG current change (%, negative = inhibition) at 10uM” value is listed as 12.6%. As for `Fc1ccc(COc2ccc(/C=N/n3cnnc3)cc2)cc1`, the “hERG current change (%, negative = inhibition) at 10uM” value is on record as -30.9%.

`Cc1cc(C)c(S(=O)(=O)N2CCCCC2)c(C)c1N(C)S(=O)(=O)c1ccc(Cl)cc1`: the “hERG current change (%, negative = inhibition) at 10uM” value is listed as 0.393%. The result for `CC1CCN(S(=O)(=O)c2ccc3c(c2)NC(=O)CS3)CC1` reads -52.2%; that for `O=C1NC[C@H](Cc2ccc(O)cc2)N(CC2CCCCC2)C1=O`, 17%; that for `Cc1c(N=Nc2c(O)n(C)c(=O)n(C)c2=O)c(=O)n(-c2ccccc2)n1C`, 8.74%. The result for `CN(C)CCCN(C(=O)c1ccc(S(=O)(=O)N2CCCCCC2)cc1)c1nc2ccc(Br)cc2s1.Cl` reads -22%; that for `CC1(C)Cc2c(sc3c2c(=O)n(-c2cccc(Cl)c2)c(=O)n3CC(N)=O)CO1`, -5.02%. As for `CC(=O)NN=C1CCC(c2ccccc2)CC1` (centres unmarked), the “hERG current change (%, negative = inhibition) at 10uM” value is -5.44%. The figure for `O=C(CCC(=O)Nc1ccc(Oc2ccccc2)cc1)NCCO` is -4.44%; for `C=C[C@@H]1c2ccccc2N(S(=O)(=O)c2ccc(C)cc2)[C@H](c2ccccc2)C1(C#N)C#N` it is 23.7%. The figure for `Cc1[nH]nc2c1C1(CCC3(CC1)OCCO3)C(C#N)=C(N)O2` is -0.214%. The result for `CC(C)Oc1cccc(C(=O)C2CCCN(Cc3cnc(N4CCOCC4)s3)C2)c1` (centres unmarked) reads -44.7%.

Regarding `CN(C)/C=C/C(=O)c1cnc2sccn2c1=O`, the “hERG current change (%, negative = inhibition) at 10uM” value was found to be 5.24%. The figure for `COc1ccccc1CN1CC(C(=O)N2CCOCC2)CCC1=O` (centres unmarked) is -14.6%; for `O=C(CCNS(=O)(=O)c1ccccc1Cl)OCc1nnc(-c2ccccc2Cl)o1` it is -25.5%; for `CCn1cc(CN2CCC(C(=O)Nc3ccc(Oc4cccnc4)cc3)CC2)cn1` it is -19%. The figure for `COc1ccc(CCNC(=O)C2(C)CCC(=O)N2Cc2ccc3c(c2)OCO3)cc1OC` (centres unmarked) is 2.22%; for `CCc1ccc(OCC(=O)Nc2ccc(S(=O)(=O)N3CCCC3)cc2)c(Br)c1` it is -4.25%. The figure for `Oc1ccc(/C=N/Nc2nccnc2Cl)c(O)c1` is 0.455%; for `CCOC(=O)c1c(=O)n(O)c2ccc(C)cc2[n+]1[O-]` it is 26.7%. For `Cc1cccc(C)c1NC(=O)c1cn(-c2ccccc2)nc1-c1ccccc1`, the “hERG current change (%, negative = inhibition) at 10uM” value came out at 5.59%. With `Cc1cc(C(=O)NC2CCCc3c2cnn3-c2cccc(C)c2C)n(C)n1` (centres unmarked), the “hERG current change (%, negative = inhibition) at 10uM” value was found to be 18.4%. As to `Cc1nnc(NS(=O)(=O)c2ccc(N)cc2)s1`, the “hERG current change (%, negative = inhibition) at 10uM” value worked out at 10.5%. For `O=C(NCc1csc(-c2cccs2)n1)c1ccccc1`, the “hERG current change (%, negative = inhibition) at 10uM” value is listed as -3.84%.

Turning to `CC(=O)c1cccc(NC(=O)CN2C(=S)NC(C)(C)CC2C)c1` (centres unmarked), the “hERG current change (%, negative = inhibition) at 10uM” value is given as 9.76%. The figure for `Cc1cccc(C)c1OCC(=O)Nc1nnc(C2CCCO2)s1` (centres unmarked) is -4.65%; for `COc1cccc(CN(C)C(=O)CSCC(=O)Nc2cc(C)on2)c1OC` it is 11.6%; for `CCOc1ccc(OCCCCNCCN)cc1.O=C(O)C(=O)O` it is 5.79%.

On to `CCCCn1c(SCn2nnc3ccccc3c2=O)nc2cc(S(N)(=O)=O)ccc21`, for which the “hERG current change (%, negative = inhibition) at 10uM” value is -34.5%. The result for `COc1ccccc1NC(=O)/C(C#N)=C/C=C/c1ccco1` reads -21.4%; that for `O=S(=O)(c1ccccc1)N1CCC(N2CCCCCC2)CC1`, -4.27%. The figure for `Cc1cc(Nc2nnnn2-c2ccccc2)n(-c2ccccc2)n1` is -21.8%. For `Fc1ccc(CNCc2ccccc2C(F)(F)F)cc1`, the “hERG current change (%, negative = inhibition) at 10uM” value is reported as 12.1%.

In the case of `Cc1cccc(N2CCN(C(=O)C3COc4ccccc4O3)CC2)c1C` (centres unmarked), the “hERG current change (%, negative = inhibition) at 10uM” value is -17.4%. As for `CC(C)C[C@H](NC(=O)c1nc[nH]c1C(=O)N1CCN(C(=O)OC(C)(C)C)CC1)C(=O)OC(C)(C)C`, the “hERG current change (%, negative = inhibition) at 10uM” value was -14.2%. With `COc1cccc(C2C(C(=O)c3cccs3)=C(O)C(=O)N2c2cc(C)on2)c1` (centres unmarked), the “hERG current change (%, negative = inhibition) at 10uM” value is 10.8%.

For `COc1ccccc1N1CCN(C(=S)Nc2cccc(C)c2)CC1`, the “hERG current change (%, negative = inhibition) at 10uM” value worked out at 3.51%. Turning to `CCCCCCC(=O)Nc1nc(C)c(-c2csc(Nc3cc(Cl)ccc3OC)n2)s1`, the “hERG current change (%, negative = inhibition) at 10uM” value is given as 17.2%. The result for `CCOC(=O)C1=C(c2ccccc2)N(C)C(=O)NC1c1ccc(O)c(OC)c1` (centres unmarked) reads -4.21%; that for `COc1ccc(/C=N/NC(=O)c2ccc(Br)cc2)c(OC)c1`, -17.7%.

On to `Nn1c(SCC(=O)Nc2nccs2)nncc1=O`, for which the “hERG current change (%, negative = inhibition) at 10uM” value was determined as 17%.

For `CC(=O)Nc1ccc(NC(=O)c2c(-c3ccccc3Cl)noc2C)cc1`, the “hERG current change (%, negative = inhibition) at 10uM” value is given as 5.89%. The figure for `CCOC(=O)c1sc(NC(=O)CSC(=S)N2CCOCC2)nc1C` is 9.27%; for `COc1cccc(OC)c1C(=O)Nc1ccccc1C(=O)N1CCCCCC1` it is -2.72%; for `Cc1ccc2c(c1C)NC(=O)CC(c1ccccc1O)=N2` it is 2.15%. Regarding `CCc1ccc(NC(=O)COC(=O)c2ccc(Cl)c(S(=O)(=O)N3CCCCCC3)c2)cc1`, the “hERG current change (%, negative = inhibition) at 10uM” value is recorded as 10.3%. `COc1ccc(CCC(=O)NC2CCCN(Cc3ccc(Cl)cc3)C2)cc1OC` (centres unmarked): the “hERG current change (%, negative = inhibition) at 10uM” value is -48.2%.

With `O=C(CCc1ccccc1)Nc1cc2c(cc1Cl)OCCO2`, the “hERG current change (%, negative = inhibition) at 10uM” value is listed as -7.19%. The figure for `COC(=O)C1=C(NC(=O)C(C)(C)C)CCS1` is -4.14%; for `O=C(Nc1ccc(S(=O)(=O)Nc2nccs2)cc1)c1cnc(Cl)c(Cl)c1` it is -30.8%; for `O=C(CNC(=O)COc1ccccc1)NCc1cccnc1` it is 6.65%. Turning to `COc1ccc(-c2sc3ccccc3c2C#CCCO)cc1`, the “hERG current change (%, negative = inhibition) at 10uM” value stood at 29.6%. On to `CC(C)(C)c1ccc(C(=O)O[C@H]2[C@H](Cc3ccccc3)NS(=O)(=O)[C@H]3C[C@@H]4C=C[C@]23O4)cc1`, for which the “hERG current change (%, negative = inhibition) at 10uM” value amounted to 21.2%. Consider `CN(c1ccccc1)c1ccc([N+](=O)[O-])c2nonc12`, for which the “hERG current change (%, negative = inhibition) at 10uM” value is listed as 4.39%. The result for `Cc1cccc(C(=O)CC(=O)c2cc(Cl)ccc2O)c1` reads 10.7%.
